Our source for the binding signal values is publication PMC12820563, “FoxP3 forms a head-to-head dimer in vivo and stabilizes its multimerization on adjacent microsatellites”.

Some of the results follow.

For the assay, the target named is T1, MBP-FoxP1dN (Mus musculus, UniProt P58462 326-579).
T1 sequence: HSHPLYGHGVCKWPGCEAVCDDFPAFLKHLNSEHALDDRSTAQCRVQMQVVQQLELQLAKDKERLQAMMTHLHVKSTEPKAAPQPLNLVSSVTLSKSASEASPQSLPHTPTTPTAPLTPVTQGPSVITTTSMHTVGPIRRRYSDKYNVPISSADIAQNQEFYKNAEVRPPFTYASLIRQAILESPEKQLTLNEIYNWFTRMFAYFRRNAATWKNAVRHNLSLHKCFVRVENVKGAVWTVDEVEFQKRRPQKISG
Description: PD-seq (MBP pull-down with sequencing); 20 mM Tris-HCl pH 7.5, 100 mM NaCl, 1.5 mM MgCl2, 0.4 uM protein, 0.1 uM dsDNA library, 30 min, room temperature, amylose pull-down; high values mean tight binding. Particulars: protein: recombinant; tags: His6-MBP; chain copies: 2; dsDNA, one strand shown. The gist of the method:
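Binding is reads-per-million enrichment of pull-down over input, with replicates pooled. It comes from 30 min room-temperature incubation in Tris pH 7.5 buffer with NaCl and MgCl2 of 0.4 µM His6-MBP-tagged, N-terminally truncated mouse FoxP3 or FoxP1 fragment from E. coli with 0.1 µM Klenow-filled degenerate double-stranded DNA library, followed by amylose resin capture, three washes and Illumina sequencing of the released DNA.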
With “GATGATTGTTCTCCCAGCTGATGAATTAACGAATTCGAGTAAACAAATTTTCCTAATCTTTCTGTTCAAGCGCCATCTAC”, the binding signal is 1.03 RPM ratio (pull-down/input). Consider “GATGATTGTTCTCCCAGCTGATGAATTTTTCGCCTCGAGTAAACAAATTTTCCTAATCTTTCTGTTCAAGCGCCATCTAC”, for which the binding signal is 0.998 RPM ratio (pull-down/input). Regarding “GATGATTGTTCTCCCAGCTGATGAATTTTACCAGTCGAGTAAACAAATTTTCCTAATCTTTCTGTTCAAGCGCCATCTAC”, the binding signal was 0.907 RPM ratio (pull-down/input). Take “GATGATTGTTCTCCCAGCTGATGAATTAGTCATTTCGAGTAAACAAATTTTCCTAATCTTTCTGTTCAAGCGCCATCTAC”: the binding signal was 1.06 RPM ratio (pull-down/input).

Regarding “GATGATTGTTCTCCCAGCTGATGAATTCTGACTTTCGAGTAAACAAATTTTCCTAATCTTTCTGTTCAAGCGCCATCTAC”, the binding signal is 0.897 RPM ratio (pull-down/input).

For the sequence “GATGATTGTTCTCCCAGCTGATGAATTGCTTCGATCGAGTAAACAAATTTTCCTAATCTTTCTGTTCAAGCGCCATCTAC”, the binding signal is 0.968 RPM ratio (pull-down/input). “GATGATTGTTCTCCCAGCTGATGAATTTTTATGGTCGAGTAAACAAATTTTCCTAATCTTTCTGTTCAAGCGCCATCTAC”: the binding signal is 0.875 RPM ratio (pull-down/input).

As for “GATGATTGTTCTCCCAGCTGATGAATTTAGGATGTCGAGTAAACAAATTTTCCTAATCTTTCTGTTCAAGCGCCATCTAC”, the binding signal was 0.992 RPM ratio (pull-down/input). For the sequence “GATGATTGTTCTCCCAGCTGATGAATTGTAGAGATCGAGTAAACAAATTTTCCTAATCTTTCTGTTCAAGCGCCATCTAC”, the binding signal was 0.898 RPM ratio (pull-down/input). With “GATGATTGTTCTCCCAGCTGATGAATTAGTTGTATCGAGTAAACAAATTTTCCTAATCTTTCTGTTCAAGCGCCATCTAC” the figure was 1.41 RPM ratio (pull-down/input); with “GATGATTGTTCTCCCAGCTGATGAATTGAAGCGGTCGAGTAAACAAATTTTCCTAATCTTTCTGTTCAAGCGCCATCTAC”, 0.79 RPM ratio (pull-down/input). With “GATGATTGTTCTCCCAGCTGATGAATTGAATATCTCGAGTAAACAAATTTTCCTAATCTTTCTGTTCAAGCGCCATCTAC” the figure was 0.802 RPM ratio (pull-down/input). The figure for “GATGATTGTTCTCCCAGCTGATGAATTCTCATACTCGAGTAAACAAATTTTCCTAATCTTTCTGTTCAAGCGCCATCTAC” is 0.821 RPM ratio (pull-down/input). For the sequence “GATGATTGTTCTCCCAGCTGATGAATTCAGTGACTCGAGTAAACAAATTTTCCTAATCTTTCTGTTCAAGCGCCATCTAC”, the binding signal was 0.872 RPM ratio (pull-down/input). On to “GATGATTGTTCTCCCAGCTGATGAATTCAAATTTTCGAGTAAACAAATTTTCCTAATCTTTCTGTTCAAGCGCCATCTAC”, for which the binding signal is 0.86 RPM ratio (pull-down/input).

As for “GATGATTGTTCTCCCAGCTGATGAATTGACTTTATCGAGTAAACAAATTTTCCTAATCTTTCTGTTCAAGCGCCATCTAC”, the binding signal is 1.12 RPM ratio (pull-down/input). Turning to “GATGATTGTTCTCCCAGCTGATGAATTTACTGAGTCGAGTAAACAAATTTTCCTAATCTTTCTGTTCAAGCGCCATCTAC”, the binding signal was 1.13 RPM ratio (pull-down/input). The figure for “GATGATTGTTCTCCCAGCTGATGAATTGAGCTTATCGAGTAAACAAATTTTCCTAATCTTTCTGTTCAAGCGCCATCTAC” is 0.879 RPM ratio (pull-down/input); for “GATGATTGTTCTCCCAGCTGATGAATTACTATCATCGAGTAAACAAATTTTCCTAATCTTTCTGTTCAAGCGCCATCTAC” it is 1.28 RPM ratio (pull-down/input); for “GATGATTGTTCTCCCAGCTGATGAATTAGGGACTTCGAGTAAACAAATTTTCCTAATCTTTCTGTTCAAGCGCCATCTAC” it is 0.866 RPM ratio (pull-down/input).

“GATGATTGTTCTCCCAGCTGATGAATTCGCGACATCGAGTAAACAAATTTTCCTAATCTTTCTGTTCAAGCGCCATCTAC”: the binding signal is 0.942 RPM ratio (pull-down/input). Turning to “GATGATTGTTCTCCCAGCTGATGAATTAATCCGGTCGAGTAAACAAATTTTCCTAATCTTTCTGTTCAAGCGCCATCTAC”, the binding signal was 0.792 RPM ratio (pull-down/input). For “GATGATTGTTCTCCCAGCTGATGAATTCAACTTGTCGAGTAAACAAATTTTCCTAATCTTTCTGTTCAAGCGCCATCTAC”, the binding signal was 0.871 RPM ratio (pull-down/input). Consider “GATGATTGTTCTCCCAGCTGATGAATTATGGCTCTCGAGTAAACAAATTTTCCTAATCTTTCTGTTCAAGCGCCATCTAC”, for which the binding signal is 0.843 RPM ratio (pull-down/input).

Regarding “GATGATTGTTCTCCCAGCTGATGAATTCGACTTTTCGAGTAAACAAATTTTCCTAATCTTTCTGTTCAAGCGCCATCTAC”, the binding signal is 0.873 RPM ratio (pull-down/input).

Take “GATGATTGTTCTCCCAGCTGATGAATTGTGCATCTCGAGTAAACAAATTTTCCTAATCTTTCTGTTCAAGCGCCATCTAC”: the binding signal was 1.66 RPM ratio (pull-down/input). With “GATGATTGTTCTCCCAGCTGATGAATTACACAATTCGAGTAAACAAATTTTCCTAATCTTTCTGTTCAAGCGCCATCTAC” the figure was 1.68 RPM ratio (pull-down/input); with “GATGATTGTTCTCCCAGCTGATGAATTCCAGTCATCGAGTAAACAAATTTTCCTAATCTTTCTGTTCAAGCGCCATCTAC”, 0.893 RPM ratio (pull-down/input); with “GATGATTGTTCTCCCAGCTGATGAATTGTTGAGTTCGAGTAAACAAATTTTCCTAATCTTTCTGTTCAAGCGCCATCTAC”, 1.1 RPM ratio (pull-down/input). With “GATGATTGTTCTCCCAGCTGATGAATTCGTATTATCGAGTAAACAAATTTTCCTAATCTTTCTGTTCAAGCGCCATCTAC” the figure was 1.36 RPM ratio (pull-down/input).

On to “GATGATTGTTCTCCCAGCTGATGAATTGTTTTGATCGAGTAAACAAATTTTCCTAATCTTTCTGTTCAAGCGCCATCTAC”, for which the binding signal is 2.01 RPM ratio (pull-down/input). With “GATGATTGTTCTCCCAGCTGATGAATTCTGCCGATCGAGTAAACAAATTTTCCTAATCTTTCTGTTCAAGCGCCATCTAC” the figure was 0.83 RPM ratio (pull-down/input).
